Results: PubChem BioAssay AID1645887 (National Center for Advancing Translational Sciences (NCATS), 2021)
Where “and” joins values, the source holds several entries; their conditions need not be identical. Identical values can stand only once. The whole screen tested about 16,000 compounds, of which about 40 (0.2%) were called active. Another 1% or so got no clear call; they are omitted. The call rests on the fitted dose curve; in most records, active means well fitted activation curve with a large enough effect; inconclusive means small, poorly fitted or top-dose-only effect, or another doubt; inactive means no such curve, though single readings can be large or run the other way. Some of the results follow.

The molecules below were run against Rap guanine nucleotide exchange factor 4 (Homo sapiens) (UniProt Q8WZA2) (assay: Validation qHTS for agonist of cAMP-regulated guanine nucleotide exchange factor 4 (EPAC2)). Conditions: EPAC2 Rap1B BODIPY-GDP exchange, fluorescence; activation: hits give high values.
In short: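 Signal normalized against 6.5 mM cAMP as agonist control. Mix of EPAC2 (100 nM), RAP1B-BODIPY-GDP (250 nM) and GDP (50 uM) was read kinetically at 480/540 nm, every 5 min over 30 min, after 5 min room-temperature incubation with compound.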
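Further: exchange makes BODIPY-GDP fluorescence drop when released from Rap1B; series mostly up to about 150 µM.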
On the % scale 0 is the no-effect control and ±100 the full control effect.

Chain of UniProt Q8WZA2 (Q8WZA2 whole entry, looked up): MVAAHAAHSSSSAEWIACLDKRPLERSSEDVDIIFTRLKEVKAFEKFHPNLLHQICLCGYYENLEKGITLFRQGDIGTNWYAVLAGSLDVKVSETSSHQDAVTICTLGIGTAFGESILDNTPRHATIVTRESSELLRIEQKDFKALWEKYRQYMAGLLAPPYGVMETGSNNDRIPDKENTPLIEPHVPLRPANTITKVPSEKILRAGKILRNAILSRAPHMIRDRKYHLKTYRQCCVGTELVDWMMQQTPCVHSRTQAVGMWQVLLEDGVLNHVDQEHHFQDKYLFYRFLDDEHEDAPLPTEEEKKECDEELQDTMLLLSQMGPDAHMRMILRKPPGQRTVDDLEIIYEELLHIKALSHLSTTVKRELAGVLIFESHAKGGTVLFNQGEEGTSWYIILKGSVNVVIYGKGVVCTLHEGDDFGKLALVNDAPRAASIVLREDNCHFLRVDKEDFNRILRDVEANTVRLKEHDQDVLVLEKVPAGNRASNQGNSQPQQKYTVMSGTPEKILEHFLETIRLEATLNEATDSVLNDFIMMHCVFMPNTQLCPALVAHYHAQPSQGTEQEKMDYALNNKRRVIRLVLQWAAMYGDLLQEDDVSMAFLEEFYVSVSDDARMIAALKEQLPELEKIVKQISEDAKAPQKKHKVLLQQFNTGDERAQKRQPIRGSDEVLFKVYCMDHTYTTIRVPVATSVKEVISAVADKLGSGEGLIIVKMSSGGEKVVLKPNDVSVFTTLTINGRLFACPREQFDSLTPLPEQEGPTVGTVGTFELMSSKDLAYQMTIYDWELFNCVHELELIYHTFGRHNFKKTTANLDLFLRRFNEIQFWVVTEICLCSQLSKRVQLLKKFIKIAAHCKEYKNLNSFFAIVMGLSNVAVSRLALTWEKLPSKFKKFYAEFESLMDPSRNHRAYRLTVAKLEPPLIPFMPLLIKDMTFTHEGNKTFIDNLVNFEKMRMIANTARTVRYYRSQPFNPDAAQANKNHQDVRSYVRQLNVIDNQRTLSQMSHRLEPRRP

Row | Compound | activation
1 | N[C@@H](Cc1ccc(Oc2cc(I)c(O)c(I)c2)c(I)c1)C(=O)O | inactive: -16.5%
2 | CNC(=O)Oc1cccc2c1OC(C)(C)O2 | inactive: -5.04%
3 | O=c1[nH]c(=O)n(Cl)c(=O)n1Cl | inactive: -0.789%
4 | CC(C)NC(=O)N1CCC2(CC1)CCN(C(=O)Oc1ccccc1)CC2 | inactive: -16.7%
5 | CCCCN(CC)c1c([N+](=O)[O-])cc(C(F)(F)F)cc1[N+](=O)[O-] | inactive: 6.04%
6 | CN1CC[C@@]2(C)c3cc(O)ccc3N(C)[C@@H]12 | inactive: 1.23%
7 | CC(=O)OC1CCC23C(=O)OC45CCC(C6=CC(=O)OC6)C4(C)CCC2C5CCC3(O)C1 (centres undefined) | inactive: -5.48%
8 | CC1=CC(=O)C2=C(C)C[C@H](O)[C@H]3[C@H](C)C(=O)O[C@@H]3C12 (some centres undefined) | inactive: -0.705%
9 | CC(C)NC(C)C | inactive: -19.1%
10 | COC(=O)CN1CN(c2ccccc2)C2(CCN(Cc3ccc4ccccc4c3)CC2)C1=O | inactive: 0.277%
11 | CC(C)(O)C1C2OC(=O)C1[C@]1(O)CC3O[C@@]34C(=O)OC2[C@@]14C (some centres undefined) | inactive: -3.36%
12 | C=C(C)[C@H]1O[C@H]2CC[C@@]3(C)[C@@](O)(CC[C@H]4[C@@H]5OC(C)(C)[C@H]6C[C@@H]7C(=C)Cc8c(Cl)cc9[nH]c(c5c9c8[C@@]76O)[C@@]43C)[C@]23O[C@@H]3[C@H]1O | inactive: -11.5%
13 | COc1cc2c(cc1OC)C(C)NCC2 (centres undefined) | inactive: -13.7% and inactive: -3.89%
14 | COc1ccccc1CN1CC[C@@]2(CCCN(C(=O)Oc3ccccc3)C2)C1 | inactive: -5.3%
15 | NC(=O)CN1CCCC1=O | inactive: -15.6% and inactive: 3.64% and inactive: -34.4%
16 | CC(=O)NBr | inactive: -19.7%
17 | C=CCN1CCC2(C)c3cc(O)ccc3CC1C2C (centres undefined) | inactive: 9.6%
18 | CC(=O)Oc1c2c(c(CC=C(C)C)c3c1C(=O)C1=CC4CC5C(C)(C)OC(C/C=C(\C)C(=O)O)(C4=O)[C@]15O3)OC(C)(CCC=C(C)C)C=C2 (some centres undefined) | inactive: -49.1%
19 | CCC1(c2cnc[nH]2)Cc2ccccc2C1 | inactive: 7.66% and inactive: -12.6%
20 | O=C(O)COc1ccccc1 | inactive: 12.5%

Row | Compound | activation
21 | CC1=C2CC3C(CC=C4C[C@@H](O)CC[C@@]43C)[C@@H]2CC[C@]12O[C@@H]1C[C@H](C)CN[C@H]1[C@H]2C (some centres undefined) | inactive: 6.83%
22 | CN(C)c1ccc(C=C2C(=O)NC(=O)NC2=O)cc1 | inactive: -26.8%
23 | Clc1ccc(CCC(Cn2ccnc2)Sc2c(Cl)cccc2Cl)cc1 (centres undefined) | inactive: -11.4%
24 | ClCCN(CCCl)c1ccc(C=Nc2ccc(/C=C/c3ccncc3)cc2)cc1 | inactive: -15%
25 | CCON=O | inactive: -6.72%
26 | CC1CC(C)C(=O)[C@H](C(O)CC2CC(=O)NC(=O)C2)C1 (some centres undefined) | inactive: -10.7%
27 | CC(C)NP(=O)(NC(C)C)OP(=O)(NC(C)C)NC(C)C | inactive: 2.8%
28 | C[N+](C)(C)CCOC(=O)C(O)(c1ccccc1)c1ccccc1 | inactive: -6.81%
29 | C[C@@H]1O[C@H](O[C@@H]2C[C@@H](O)[C@]3(CO)[C@H]4[C@H](O)C[C@]5(C)[C@@H](C6=CC(=O)OC6)CC[C@@]5(O)[C@@H]4CC[C@]3(O)C2)[C@@H](O)[C@H](O)[C@H]1O | inactive: -10.7%
30 | Cc1c2ccncc2c(C)c2c1[nH]c1ccccc12 | inactive: -7.25% and inactive: -0.629%
31 | CC(=O)OCC(=O)[C@H]1CC[C@H]2[C@@H]3CC[C@H]4C[C@H](O)CC[C@]4(C)[C@H]3C(=O)C[C@]12C | inactive: -3.62%
32 | CC(C)(O)[C@@H]1C2OC(=O)[C@@H]1[C@]1(O)C[C@H]3O[C@]34C(=O)O[C@H]2[C@]14C (tested in a mixture with another compound) | inactive: -28.7%
33 | O=S1(=O)N(CCN2CC=C(c3c[nH]c4cc(F)ccc34)CC2)c2cccc3c2N1CCC3 | inactive: -48.4%
34 | NC[C@H](CS(=O)(=O)O)c1ccc(Cl)cc1 | inactive: -6.43%
35 | N#CC(C#N)=Cc1ccc([N+](=O)[O-])c(O)c1 | inactive: -6.77% and inactive: 4.2%
36 | O=C(CCCN1CCC2(CC1)C(=O)N(Cc1cccc(F)c1)CN2c1ccccc1)c1ccc(F)cc1 | inactive: 3.2% and inactive: 11.6%
37 | c1ccc2c(c1)[nH]c1cnccc12 | inactive: -11.9%
38 | c1cc2c(c(NC3=NCCN3)c1)CCCC2 | inactive: -20.4%
39 | CN1CCCC2(CCN(C(=O)c3ccncc3)CC2)C1 | inactive: -6.17%
